From PubChem BioAssay AID493014 (National Center for Advancing Translational Sciences (NCATS), 2011)
Hit rate of the full screen: of about 340,000 compounds, about 170 (0.05%) were called active. About 26% were inconclusive and are not listed. Calls follow the shape of the dose curve; as a rule, active = well fitted inhibition curve with a large enough effect in the signal ratio, with a control signal flat (not every such curve was filed as active); inconclusive = small, poorly fitted or top-dose-only effect, or effect the other way, or a change in a side signal; inactive = flat fitted curve, though single readings scatter; the % refers to the signal ratio. Only a part is listed here, and it is no random draw.

Assay: qHTS Assay to Find Inhibitors of Chronic Active B-Cell Receptor Signaling
Conditions: ABC-DLBCL IkBa-CBG/CBR reporter, luminescence ratio (green luciferase fused to IkBa over red control in TMD8 lymphoma cells), 4 h; series mostly up to 46.1 µM; activity change, negative = inhibition: at the top concentration
From the text: NIH Molecular Libraries Probe Production Network [MLPCN] NIH Chemical Genomics Center [NCGC] MLPCN Grant: 1 R03 DA031086-01A1 PI Name: Dr. R. Eric Davis NCGC Assay Overview: Diffuse large B-cell lymphoma (DLBCL) is the most common category of non-Hodgkin lymphoma, with ~20,000 new cases per year in the United States. DLBCL should be regarded as a collection of different neoplasms. Microarray gene expression analysis has defined two principal types of DLBCL, named for their similarity to normal B cell stages or activation states: a germinal center B-cell (GCB) type, and an activated B-cell (ABC) type. In ABC-DLBCL, a constitutive high-level activity of the NF-kappaB family of transcription factors has been observed (1) and NF-kappaB target genes are more highly expressed in ABC primary tumors than in GCB tumors. Functional studies have shown a constitutive high-level activity of the IkappaB (inhibitor of kappa-B) kinase (IKK) complex. […] Further analysis of DLBCL primary tumors for NF-kappaB target gene expression imply that although CARD11 is required for constitutive IKK activity in all ABC-DLBCL lines, mutations in CARD11 may be the root cause of IKK activation only in lines or tumors with such mutations. In other words, CARD11 mutations may explain NF-kappaB activation in only 10% of ABC-DLBCL cases. […] This process has been termed 'chronic active BCR signaling' (CABS). The goal of this screen is to find small-molecule inhibitors of the CABS pathway found in ABC-DLBCL lines using a cell-based assay that measures IkappaBalpa stability, which has already been extensively validated in the OCI-Ly3 line (PubChem AID:445; REF: 4). […] The assay uses green (CBG68) and red (CBR) emitting beetle luciferases [Chroma-GloTM developed by Promega Corp.] where the green luciferase is fused to IkappaBalpha and the red luciferase is present in its native state. Both luciferase genes are stably present in the TMD8 human ABC DLBCL cell line, but their expression is under the control of tetracycline-inducible promoters. Following the addition of doxycycline to induce expression of the luciferases, the green luminescence in control cultures rises only slowly because the CBG fusion partner IkappaBalpha is targeted by IKK activity for rapid degradation. In contrast, green luminescence rises rapidly in the presence of proteasome inhibitors or IKK inhibitors. The rise in red luminescence of CBR is not affected by proteasome or IKK inhibitors, and serves as normalization for cell number and nonspecific effects. Compounds were screened as a concentration-titration series that ranged from 46 uM to 3 nM.
NCGC Assay Protocol Summary: Cells were seeded in 1536-well plates at 5000 cells/4uL in IMDM medium containing 0.5% FBS, w/o phenol red, 1% penicillin/streptomycin. Then, 23 nL of compounds or DMSO were delivered to each well using a pin tool. One uL 20ng/ml doxycycline was then dispensed into white solid 1536-well plates and the plates were incubated at 37C/5% C02 in a cell incubator for 4 hrs. Then 4 uL luminescent substrate mix (in-house prepared: 150 mM Tris-Cl, pH 7.6, 3 mM MgCl2, 1% Triton X-100, 5 mM DTT, 0.2 mM CoA, 0.15 mM ATP, 5 mM D-luciferin, final concentrations) was added to each well. The plate was incubated at r.t. for 10-15 min. The plates were measured on a ViewLux plate reader for green luminescence (540/20 nm filter) and red luminescence (618/8 nm filter). The green and red luminescent signals were corrected for red and green luminescence filter overlap using previously determined filter calibration constants (determined using the procedure outlined in the Promega Technical Manual; REF 4). The %Activity was determined from the ratio of corrected green/red luminescent values. MG132 were used as control. […] Red luminescent %Activity was normalized to the difference between red luminesence in basal cells (0%Activity) and zero luminescence (-100% Activity). […]
Potency is read from the fitted curve at half-maximal effect.

Row | Compound | activity change, negative = inhibition | Potency
1 | c1cc2c(cc1[C@H]1OC[C@H]3[C@@H]1CO[C@H]3c1ccc3c(c1)OCO3)OCO2 | inactive: 0.476% | –
2 | C[N+]1(C)C2CC[C@H]1CC(OC(=O)C(CO)c1ccccc1)C2 (stereo not given in full) | inactive: 0.0514% | –
3 | C[C@]12CCC(=O)C=C1CC[C@@H]1C2CC[C@]2(C)C(=O)CCC12 (stereo not given in full) | inactive: -6.49% | –
4 | O=[N+]([O-])c1cc(Cl)c2cccnc2c1O | – | active: 11.2 µM
5 | CCOC(=O)[C@@H]1[C@H]2COc3ccc(Br)cc3[C@H]2N2C(=O)N(c3cccc(C)c3)C(=O)[C@]12C | inactive: 0.459% | –
6 | COc1ccc2[nH]c3c(c2c1)CCNC3C (stereo not given) | inactive: 2.91% | –
7 | CC(=O)OCC[N+](C)(C)C | – | inactive
8 | C[C@]12CCC3C(CC[C@H]4C[C@@H](O)CC[C@]34C)C1C[C@@H](Br)[C@@H]2O (stereo not given in full) | inactive: 4.05% | –
9 | C[C@]12CCC(=O)C=C1CCC1C2CC[C@@]2(C)C1CC[C@]2(C)O (stereo not given in full) | inactive: -1.57% | –
10 | CC[n+]1c(/C=C2/C=C(C)CC(C)C2)sc2ccccc21 (stereo not given) | inactive: -5.13% | –
11 | COc1ccc2c(c1OC)C(=O)O[C@H]2[C@@H]1c2cc3c(cc2CCN1C)OCO3 | inactive: -3.16% | –
12 | CN(C)[C@@H]1C(=O)C(C(N)=O)=C(O)[C@@]2(O)C(=O)C3=C(O)c4c(O)cccc4[C@@](C)(O)[C@H]3[C@H](O)[C@@H]12 | – | inactive
13 | CNC(=O)Oc1ccc2c(c1)[C@]1(C)CCN(C)C1N2C (stereo not given in full) | inactive: 2.24% | –
14 | Clc1ccc(COC(Cn2ccnc2)c2ccc(Cl)cc2Cl)c(Cl)c1 (stereo not given) | inactive: -6.25% | –
15 | CN1CCc2cccc3c2[C@H]1Cc1ccc(O)c(O)c1-3 | inactive: -6.37% | –
16 | Cc1cc(/C=C2/SC(=O)NC2=O)c(C)n1-c1ccc(N2CCOCC2)cc1 | inactive: 0.182% | –
17 | CCCC[N+]1(C)C2CC(OC(=O)C(CO)c3ccccc3)CC1C1OC12 (stereo not given) | inactive: 0.87% | –
18 | CN(C)[C@@H]1C(=O)C(C(N)=O)=C(O)[C@@]2(O)C(=O)C3=C(O)c4c(O)cccc4[C@@](C)(O)C3[C@H](O)C12 (stereo not given in full) | – | inactive
19 | CC(C)C[C@H]1C(=O)N2CCC[C@H]2[C@]2(O)O[C@](NC(=O)[C@@H]3C=C4c5cccc6[nH]cc(c56)C[C@H]4N(C)C3)(C(C)C)C(=O)N12 | inactive: 4.26% | –
20 | C[C@@H]1CCC2[C@@H](C)C(=O)O[C@@H]3OC4(C)CCC1[C@@]23OO4 (stereo not given in full) | inactive: 0.539% | –
21 | NC(N)=Nc1ccc2[nH]c3c(c2c1)C[C@@]1(O)[C@H]2Cc4ccc(O)c5c4[C@@]1(CCN2CC1CC1)[C@H]3O5 | – | active: 23.1 µM
22 | COc1ccc2c(c1OC)C(=O)O[C@@H]2[C@H]1c2cc3c(cc2CCN1C)OCO3 | inactive: -6.46% | –
23 | O=C(O)CCCCC1SCC2NC(=O)NC21 (stereo not given) | inactive: -0.483% | –
24 | CC1CCC2C(C)C(=O)OC3OC4(C)CCC1C32OO4 (stereo not given) | inactive: 1.69% | –

Row | Compound | activity change, negative = inhibition | Potency
25 | CCN(CC)CCN=Cc1c(O)n(Cc2ccccc2)c(=O)[nH]c1=O | inactive: 5.41% | –
26 | C[N+]1(C)C2CCC1CC(OC(=O)C(CO)c1ccccc1)C2 (stereo not given) | inactive: 12.9% | –
27 | C[C@]12CC[C@H]3[C@@H](CCC4=CC(=O)CC[C@@]43C)[C@@H]1CC[C@@H]2O | inactive: 0.966% | –
28 | O=C(Cn1c[n+](CC(=O)c2ccc([N+](=O)[O-])cc2)cn1)c1ccc([N+](=O)[O-])cc1 | inactive: -0.651% | –
29 | CCN1C[C@]2(COC(=O)c3ccccc3N)CC[C@H](OC)C34[C@@H]5C[C@H]6[C@H](OC)[C@@H]5[C@](O)(C[C@@H]6OC)[C@@](O)([C@H]13)[C@@H](OC)[C@@H]42 | inactive: 6.94% | –
30 | O=C(OCC(=O)c1ccc([N+](=O)[O-])cc1)/C(=C/c1ccc(Cl)cc1)NC(=O)c1ccccc1 | inactive: -5.55% | –
31 | COc1ccc(NC(=O)Cn2c(=O)oc3ccccc32)cc1 | inactive: 0.376% | –
32 | CC(C)c1ccc(N2C(=O)NC(=O)/C(=C\C=C\c3ccco3)C2=O)cc1 | inactive: 14.1% | –
33 | CC[C@]12C=CCN3CCC4(c5cc(Br)c(OC)cc5N(C)C4[C@@](O)(C(=O)OC)[C@@H]1OC(C)=O)C32 (stereo not given in full) | inactive: -0.254% | –
34 | C[C@H](CCC(=O)O)[C@H]1CC[C@H]2[C@@H]3[C@@H](O)C[C@@H]4C[C@H](O)CC[C@]4(C)[C@H]3CC[C@]12C | inactive: 5.75% | –
35 | CCSc1nnc(C(N)Cc2ccccc2)o1 (stereo not given) | inactive: 1.57% | –
36 | CC(C)=CCN1CC[C@@]2(C)c3cc(O)ccc3C[C@@H]1C2C (stereo not given in full) | inactive: 0.0042% | –
37 | CC(=O)CC(c1ccccc1)c1c(O)c2ccccc2oc1=O (stereo not given) | inactive: 10.2% | –
38 | O=C1OC(=O)C2C3CCC(O3)C12 (stereo not given) | inactive: 12.4% | –
39 | C=C(C)[C@@H]1CC=C(CN2CCN(Cc3ccccc3)CC2)CC1 | inactive: -0.17% | –
40 | COc1cc(/C=C/[N+](=O)[O-])ccc1O | – | active: 20.6 µM
41 | C[C@]12CC[C@@H](O)C[C@@H]1CC[C@@H]1[C@@H]2CC[C@]2(C)[C@@H](O)CC[C@@H]12 | inactive: -12.2% | –
42 | O=C1/C(=C\c2ccc([N+](=O)[O-])cc2)N2CCC1CC2 | inactive: -14.9% | –
43 | CCOC(=O)C1=C(N)OC2=C(C(=O)CCC2)C12C(=O)N(CC(N)=O)c1ccccc12 (stereo not given) | inactive: -4.44% | –
44 | COC1=CC2[C@@H]3Cc4ccc(OC)c(O)c4[C@]2(CCN3C)CC1=O (stereo not given in full) | inactive: -0.484% | –
45 | C[C@]12CCC3C(CC[C@H]4C[C@@H](O)CC[C@]34C)C1CC[C@@H]2O (stereo not given in full) | inactive: -2.39% | –
46 | C[N+]1(C)[C@@H]2CC[C@H]1CC(OC(=O)[C@@H](CO)c1ccccc1)C2 (stereo not given in full) | inactive: 6.65% | –
47 | CC(C)[N+]1(C)[C@@H]2CC[C@H]1CC(OC(=O)C(CO)c1ccccc1)C2 (stereo not given in full) | inactive: -2.97% | –
48 | Cc1ccc(C(=O)N/C(=C\c2ccc(-c3cccc([N+](=O)[O-])c3)o2)C(=O)NCCCN(C)C)cc1 | inactive: -1.51% | –

Row | Compound | activity change, negative = inhibition | Potency
49 | Oc1ccc2c3c1O[C@H]1c4[nH]c5ccccc5c4C[C@@]4(O)C(C2)N(CC2CC2)CC[C@]314 | inactive: 4.84% | –
50 | CC(=O)O[C@]1(c2ccccc2)CCN(C)[C@H]2CCCC[C@@H]21 | inactive: -8.63% | –
51 | c1cc2c(cc1C1OCC3C(c4ccc5c(c4)OCO5)OCC13)OCO2 (stereo not given) | inactive: -3.34% | –
52 | Cc1cc(/C=C2\C(=O)NC(=O)N(c3ccc(Br)cc3)C2=O)c(C)n1C | inactive: 1.47% | –
53 | O=C(O)[C@H]1C[C@@H]1[C@H](NP(=O)(c1ccccc1)c1ccccc1)c1ccccc1 | inactive: -2.27% | –
54 | C[C@]12CCC(=O)C=C1CCC1C2CC[C@@]2(C)C1CC[C@@H]2O (stereo not given in full) | inactive: -9.68% | –
55 | [2H]c1c([2H])c([2H])c(C(=O)c2sc(N3CCCCCC3)nc2-c2ccccc2)c([2H])c1[2H] | inactive: 12.5% | –
56 | O=[N+]([O-])/C(C(Cl)=C(Cl)Cl)=C(\Sc1ccccc1)N1CCCCC1 | inactive: 7.73% | –
57 | Cc1c(OCC(F)(F)F)ccnc1CS(=O)c1nc2ccccc2[nH]1 (stereo not given) | inactive: 2.59% | –
58 | CC1=CC(=O)C2=C(C)C[C@H](O)[C@@H]3[C@H](OC(=O)[C@H]3C)[C@@H]12 | inactive: -9.98% | –
59 | C=CCN1C(=O)/C(=C/c2ccc(N3CCOCC3)o2)C(=O)NC1=S | inactive: -4.58% | –
60 | COC(=O)C1=COC(C)C2CN3CCC4(C(=O)Nc5ccccc54)C3CC12 (stereo not given) | inactive: 3.88% | –
61 | COc1ccc(NC(=O)CCS(=O)(=O)c2ccc3c(c2)oc(=O)n3C)cc1OC | inactive: 0.972% | –
62 | CCC(COC(=O)c1cc(OC)c(OC)c(OC)c1)(c1ccccc1)N(C)C (stereo not given) | inactive: 0.634% | –
63 | Oc1ccc2c3c1OC1c4[nH]c5ccccc5c4C[C@@]4(O)C(C2)N(CC2CC2)CC[C@]314 (stereo not given in full) | inactive: -0.721% | –
64 | O=c1ccc2cc(OC3O[C@H](CO)[C@@H](O)[C@H](O)[C@H]3O)c(O)cc2o1 (stereo not given in full) | inactive: 0.251% | –
65 | C[C@@H]1O[C@@H]1P(=O)(O)O | inactive: 2.7% | –
66 | Cc1ccccc1-n1c(O)c(/C=N/c2nccs2)c(=O)[nH]c1=O | inactive: 0.245% | –
67 | COC(=O)C1=CO[C@@H](C)[C@@H]2CN3CC[C@]4(C(=O)Nc5ccccc54)[C@@H]3C[C@H]12 | inactive: 1.15% | –
68 | C[N+]1(C)[C@@H]2CC[C@H]1CC(OC(=O)C(CO)c1ccccc1)C2 (stereo not given in full) | – | inactive
69 | Cc1cccc(NC(=O)C2CCCN(S(=O)(=O)c3ccc4c(c3)oc(=O)n4C)C2)c1 (stereo not given) | inactive: 2.78% | –
70 | COc1ccc2c3c1OC1CC(O)C=CC31CCN(C)C2 (stereo not given) | inactive: -0.728% | –
